Read-outs that look alike come from different tables or passages of the source.
Legend:
hIL-1R-I = molecular target: T1, hIL-1R-I (Homo sapiens, UniProt P14778); test: Biacore affinity/kinetic analysis of His6-tagged Z variants, human IL-1R-I; assay type: binding; conditions: for Kd: read-out: KD
T1 construct: purchased R&D Systems 269-1R/CF
T1 sequence (P14778 18-569): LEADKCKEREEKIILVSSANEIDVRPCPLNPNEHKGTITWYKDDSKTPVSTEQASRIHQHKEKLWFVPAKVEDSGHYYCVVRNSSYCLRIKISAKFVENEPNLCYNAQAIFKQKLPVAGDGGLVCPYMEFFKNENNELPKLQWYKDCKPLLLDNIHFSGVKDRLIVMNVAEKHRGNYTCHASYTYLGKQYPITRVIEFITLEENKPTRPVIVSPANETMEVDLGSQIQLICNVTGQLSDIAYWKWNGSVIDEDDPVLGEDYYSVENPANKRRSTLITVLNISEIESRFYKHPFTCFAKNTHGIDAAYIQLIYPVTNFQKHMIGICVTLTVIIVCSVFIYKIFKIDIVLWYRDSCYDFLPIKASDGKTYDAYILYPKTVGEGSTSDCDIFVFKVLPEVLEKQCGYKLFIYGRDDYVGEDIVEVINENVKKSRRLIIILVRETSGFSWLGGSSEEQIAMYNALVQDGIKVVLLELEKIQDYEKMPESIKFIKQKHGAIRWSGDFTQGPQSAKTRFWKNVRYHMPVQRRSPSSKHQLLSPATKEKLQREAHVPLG
Method: Affinities (KD) for human and cynomolgus IL-1R-I were determined for His6-tagged Z variants using a Biacore 2000 instrument (GE Healthcare). hIL-1R-I or cIL-1R-I-His6 was immobilized on the carboxylated dextran layer in different flow cells of a CM5 chip (GE Healthcare, cat. no. BR100012). The immobilization was performed using amine coupling chemistry according to the manufacturer's protocol. Acetate pH 4.5 (GE Healthcare, cat. no. BR100350) was used for ligand dilution and HBS-EP (GE Healthcare, cat. no. BR100188) was used as running buffer. One flow cell surface on the chip was activated and deactivated for use as blank during analyte injections. In the kinetic experiment, HBS-EP was used as running buffer, the flow rate was 50 μl/min and the temperature was 25° C. The analytes, i.e. the Z variants, were each diluted in HBS-EP buffer to final concentrations of 40 nM and 10 nM, and were injected over the target chip surfaces for 2 min, followed by dissociation in running buffer for 8 min. Kinetic constants were calculated from the obtained sensorgrams using a 1:1 binding model, in the BiaEvaluation software 4.1 (GE Healthcare).
The kinetic constants (kon and koff) and affinities (KD) for human and cynomolgus IL-1R-I were determined for His6-tagged Z variants using a Biacore 2000 instrument (GE Healthcare). The experiment was run essentially as described in Example 2, using 100, 10 and 1 nM of the Z variants. The analyte injection time was 3 min followed by 15 min dissociation and 2×5 s glycine pH 3.0 (GE Healthcare, cat. no. BR100357), supplemented with 0.5 M NaCl, was used for regeneration of the surfaces between the cycles. Kinetic constants were calculated from the obtained sensorgrams of two or three concentrations of the respective Z variant, using a 1:1 binding model in the BiaEvaluation software 4.1 (GE Healthcare). His6-tagged Z12967 was included in the assay for comparison.
The kinetic constants (kon and koff) and affinities (KD) for human and cynomolgus IL-1R-I were determined for His6-tagged Z variants using a Biacore 2000 instrument (GE Healthcare). The experiment was run essentially as described in Example 5, using 48, 12, 3 and 0.75 nM of the Z variants. The analyte injection time was 3 min followed by 6 min dissociation and 2×5 s glycine pH 3.0, supplemented with 0.5 M NaCl, was used for regeneration of the surfaces between the cycles. Kinetic constants were calculated from the obtained sensorgrams of three or four concentrations of the respective Z variant, using a 1:1 binding model in the BiaEvaluation software 4.1 (GE Healthcare). His6-tagged Z12967 (SEQ ID NO:9), Z16065 (SEQ ID NO:268), Z16163 (SEQ ID NO:359) and Z18557 (SEQ ID NO:1205) were included in the assay for comparison.

TF-1 cells = test: In vitro IL-1β neutralization assay (TF-1 cell assay); assay type: cell-based; conditions: His6-Z polypeptides, IL-1β inhibition in TF-1 cell assay, Table 12 (first matured library)
Method: The TF-1 cell line proliferates in response to many different cytokines including IL-1β. This cell line was used to assess the ability of primary IL-1R1 binders to inhibit IL-1β actions. TF-1 cells were maintained in RPM11640 with L-glutamine (Lonza) supplemented with 10% FCS (Gibco), Penicillin-Streptomycin (Lonza) and 2 ng/ml rhGM-CSF (R&D Systems). Prior to use, cells were washed twice in RPM11640 without rhGM-CSF. Cells were then counted and dispensed into 96 well flat bottomed plates at a density of 3×10^4 cells per well. In separate plates, serial dilutions of the inhibitory binders; His6-tagged IL-1R-I binding Z variants, with a concentration range of 400-0.1 nM, or the IL-1R-I binding protein Kineret (anakinra, Sobi), with a concentration range of 0.3-0.0003 nM, were incubated in the presence of 0.6 nM IL-1β (PeproTech). The pre-mixed complexes of the Z variant polypeptides and IL-13 were transferred to wells containing TF-1 cells. The cells were stimulated for 72 h at 37° C. in a humidified 5% CO2 atmosphere. During the last four hours of incubation, 19 μl of 2× diluted CCK-8 (Fluka, Sigma Aldrich), was added per well to determine the proliferative responses. The absorbance was measured at 450 nm using a microplate reader (Victor3, Perkin Elmer). The data on cell growth was assessed by non-linear regression to a four-parameter dose-response curve, and the half maximal inhibitory concentration (IC50) was determined using GraphPadPrism program.
(§1) His6-tagged IL-1R-I specific Z variants were tested for their inhibitory capacity in the TF-1 cell assay. The assay was run as described in Example 2. The data on cell growth was assessed by non-linear regression to a four-parameter dose-response curve, and IC50 values were determined using GraphPadPrism program. His6-tagged Z12967 was included for comparison.
as §1, with “Z12967, Z16065, Z16163 and Z18557 were” for “Z12967 was”

[1] = Circular dichroism (CD) spectroscopy analysis, melting temperature and refolding; assay type: physicochemical; conditions: for Melting temperatures (Tm): His6-tagged Z variants, CD variable temperature measurement, Table 21; for thermo-stability and α-helical content versus Z variants having alanine in position X5: His6-tagged, valine or isoleucine in position X5 of the BM (Example 9)
Method: Purified His6-tagged Z variants were diluted to 0.5 mg/ml in PBS. For each diluted Z variant, a CD spectrum at 250-195 nm was obtained at 20° C. In addition, a variable temperature measurement (VTM) was performed to determine the melting temperature (Tm). In the VTM, the absorbance was measured at 221 nm while the temperature was raised from 20 to 90° C., with a temperature slope of 5° C./min. A new CD spectrum was obtained at 20° C. after the heating procedure in order to study the refolding ability of the Z variants. The CD measurements were performed on a Jasco J-810 spectropolarimeter (Jasco Scandinavia AB) using a cell with an optical path length of 1 mm.
CD was analyzed for His6-tagged Z variants, as described in Example 2.

[2] = His6-Z polypeptides, 100, 10 and 1 nM (Example 5)
[3] = His6-Z polypeptides binding to human IL-1R-I, Biacore, Table 19

Substance | koff (hIL-1R-I; [2]) [s⁻¹] | kon (hIL-1R-I; [2]) [M⁻¹ s⁻¹] | Kd (hIL-1R-I; [2]) [nM] | IC50 (TF-1 cells) [nM] | koff (hIL-1R-I; [3]) [s⁻¹] | kon (hIL-1R-I; [3]) [M⁻¹ s⁻¹] | Kd (hIL-1R-I; [3]) [nM] | Melting temperatures (Tm) [1] [°C] | thermo-stability and α-helical content versus Z variants having alanine in position X5 [1]
Z16072: IL-1R-I binding Z variant (VDAKYAKEVEIAQMEIFELPNLTRKQYTAFIRKLLDDPSQSSELLSEAKKLNDSQAPK; Engineered IL-1R-I binding polypeptide) | 0.0022 | 4.6e+06 | 0.47 | 4.3 |  |  |  |  | 
Z16255: IL-1R-I binding Z variant (VDAKYAKETEDAYMEIYALPNLTRKQYTAFIRKLLDDPSQSSELLSEAKKLNDSQAPK; Engineered IL-1R-I binding polypeptide) | 0.0031 | 3e+06 | 1 | 8.5 |  |  |  |  | 
Z18863 (VDAKYAKEVEEVQMEIFGLPNLTRRQYTAFIRKLLDDPSQSSELLSEAKKLNDSQAPK; His6 tag; Engineered IL-1R-I binding polypeptide) |  |  |  |  | 0.0048 | 2.2e+07 | 0.22 | 57 | 
Z18893 (VDAKYAKEIEEIQMEIFGLPNLTRKQYTAFIRKLLDDPSQSSELLSEAKKLNDSQAPK; His6 tag; Engineered IL-1R-I binding polypeptide) |  |  |  |  | 0.0024 | 8.6e+06 | 0.27 | 60 | 
Z19147: IL-1R-I binding Z variant (VDAKYAKELEEIQMEIFYLPNLTRRQYTAFIRKLLDDPSQSSELLSEAKKLNDSQAPK; Engineered IL-1R-I binding polypeptide) |  |  |  |  | 0.0043 | 2.8e+07 | 0.15 | 57 | not substantially different
Z19151: IL-1R-I binding Z variant (VDAKYAKEVEDIQLEIFALPNLTRRQYTAFIRKLLDDPSQSSELLSEAKKLNDSQAPK; Engineered IL-1R-I binding polypeptide) |  |  |  |  | 0.007 | 2.8e+07 | 0.25 | 59 | not substantially different

Second part, led by results:

koff (hIL-1R-I; [2]) [s⁻¹] | kon (hIL-1R-I; [2]) [M⁻¹ s⁻¹] | Kd (hIL-1R-I; [2]) [nM] | IC50 (TF-1 cells) [nM] | koff (hIL-1R-I; [3]) [s⁻¹] | kon (hIL-1R-I; [3]) [M⁻¹ s⁻¹] | Kd (hIL-1R-I; [3]) [nM] | Substance | Melting temperatures (Tm) [1] [°C] | thermo-stability and α-helical content versus Z variants having alanine in position X5 [1]
0.0019 | 2.8e+06 | 0.67 | 6.6 |  |  |  | Z15862: IL-1R-I binding Z variant (VDAKYAKEVEIAQMEIFALPNLTRKQYTAFIRKLLDDPSQSSELLSEAKKLNDSQAPK; Engineered IL-1R-I binding polypeptide) |  | 
0.0021 | 2.3e+06 | 0.92 | 5.9 |  |  |  | Z16007: IL-1R-I binding Z variant (VDAKYAKEVEIAQMEIFSLPNLTRKQYTAFIRKLFDDPSQSSELLSEAKKLNDSQAPK; Engineered IL-1R-I binding polypeptide) |  | 
0.0016 | 3.1e+06 | 0.53 | 4.8 |  |  |  | Z16143: IL-1R-I binding Z variant (VDAKYAKEIEAAQMEIFRLPNLTRKQYTAFIRKLLDDPSQSSELLSEAKKLNDSQAPK; Engineered IL-1R-I binding polypeptide) |  | 
0.0036 | 2.1e+06 | 1.7 | 11.5 |  |  |  | Z16165: IL-1R-I binding Z variant (VDAKYAKEIEVAQMEIYSLPNLTRKQYTAFIRKLFDDPSQSSELLSEAKKLNDSQAPK; Engineered IL-1R-I binding polypeptide) |  | 
0.0056 | 2.5e+06 | 2.2 | 24.2 |  |  |  | Z16219: IL-1R-I binding Z variant (VDAKYAKEIEHAQLEIFSLPNLTRKQYTAFIRKLLDDPSQSSELLSEAKKLNDSQAPK; Engineered IL-1R-I binding polypeptide) |  | 
 |  |  |  | 0.0044 | 6.7e+07 | 0.066 | Z18898: IL-1R-I binding Z variant (VDAKYAKELEAIQMEIFYLPNLTRRQYVAFIRKLLDDPSQSSELLSEAKKLNDSQAPK; Engineered IL-1R-I binding polypeptide) | 59 | 
 |  |  |  | 0.0039 | 1.7e+07 | 0.22 | Z19143: IL-1R-I binding Z variant with valine or isoleucine in position X5 (VDAKYAKEVEEIQLEIFHLPNLTRRQYTAFIIKLLDDPSQSSELLSEAKKLNDSQAPK; His6 tag; Engineered IL-1R-I binding polypeptide) | 56 | not substantially different
 |  |  |  | 0.0043 | 2.1e+07 | 0.2 | Z19170: IL-1R-I binding Z variant with valine or isoleucine in position X5 (VDAKYAKEVEEIQMEIFELPNLTRRQYTAFIRKLLDDPSQSSELLSEAKKLNDSQAPK; His6 tag; Engineered IL-1R-I binding polypeptide) | 52 | not substantially different

From patent publication US12116397B2, “IL-IR-I binding polypeptide” (Swedish Orphan Biovitrum AB (publ), priority 2017, dated 2024)
